Data taken from publication PMC12820563, “FoxP3 forms a head-to-head dimer in vivo and stabilizes its multimerization on adjacent microsatellites”.
This is one part of the list.

Target: T1, MBP-FoxP1dN (Mus musculus, UniProt P58462 326-579)
T1 sequence: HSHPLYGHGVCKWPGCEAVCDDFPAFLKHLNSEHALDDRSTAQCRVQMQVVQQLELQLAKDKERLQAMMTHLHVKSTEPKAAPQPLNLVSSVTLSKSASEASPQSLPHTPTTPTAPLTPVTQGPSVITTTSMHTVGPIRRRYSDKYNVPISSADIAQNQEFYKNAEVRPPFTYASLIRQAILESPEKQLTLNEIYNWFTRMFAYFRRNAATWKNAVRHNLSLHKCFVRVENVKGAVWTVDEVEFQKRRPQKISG
Assay: PD-seq (MBP pull-down with sequencing); 20 mM Tris-HCl pH 7.5, 100 mM NaCl, 1.5 mM MgCl2, 0.4 uM protein, 0.1 uM dsDNA library, 30 min, room temperature, amylose pull-down; high values mean tight binding
Settings: protein: recombinant; tags: His6-MBP; chain copies: 2; dsDNA, one strand shown
Method in brief: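 The N-terminus-lacking fragment of mouse FoxP3 or FoxP1 carried a His6-MBP tag and was expressed in E. coli. At 0.4 µM it was incubated with 0.1 µM Klenow-filled degenerate double-stranded DNA library for 30 min at room temperature in Tris pH 7.5 buffer with NaCl and MgCl2, and complexes were caught on amylose resin, washed three times, released with proteinase K, PCR-barcoded and Illumina-sequenced. Binding is reads-per-million enrichment of pull-down over input with replicates pooled.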

First: GATGATTGTTCTCCCAGCTGATGAATTACTGCGATCGAGTAAACAAATTTTCCTAATCTTTCTGTTCAAGCGCCATCTAC
Second: GATGATTGTTCTCCCAGCTGATGAATTTCTCGCATCGAGTAAACAAATTTTCCTAATCTTTCTGTTCAAGCGCCATCTAC
The binding signal of the first is lower: 1.06 RPM ratio (pull-down/input) for the first, 1.12 RPM ratio (pull-down/input) for the second.

Compared with “GATGATTGTTCTCCCAGCTGATGAATTACACCGATCGAGTAAACAAATTTTCCTAATCTTTCTGTTCAAGCGCCATCTAC”, “GATGATTGTTCTCCCAGCTGATGAATTTAAAGCGTCGAGTAAACAAATTTTCCTAATCTTTCTGTTCAAGCGCCATCTAC” is lower in binding signal: 1.08 RPM ratio (pull-down/input) for the first, 0.962 RPM ratio (pull-down/input) for the second.

First: GATGATTGTTCTCCCAGCTGATGAATTCTACACTTCGAGTAAACAAATTTTCCTAATCTTTCTGTTCAAGCGCCATCTAC
Second: GATGATTGTTCTCCCAGCTGATGAATTTCCAGAATCGAGTAAACAAATTTTCCTAATCTTTCTGTTCAAGCGCCATCTAC
The binding signal of the first is higher: 0.924 RPM ratio (pull-down/input) for the first, 0.894 RPM ratio (pull-down/input) for the second.

Going from “GATGATTGTTCTCCCAGCTGATGAATTTCTTGACTCGAGTAAACAAATTTTCCTAATCTTTCTGTTCAAGCGCCATCTAC” to “GATGATTGTTCTCCCAGCTGATGAATTCTACTAATCGAGTAAACAAATTTTCCTAATCTTTCTGTTCAAGCGCCATCTAC”, the binding signal rises from 0.868 RPM ratio (pull-down/input) to 0.957 RPM ratio (pull-down/input).

Compared with “GATGATTGTTCTCCCAGCTGATGAATTGTTAGGCTCGAGTAAACAAATTTTCCTAATCTTTCTGTTCAAGCGCCATCTAC”, “GATGATTGTTCTCCCAGCTGATGAATTACGAACCTCGAGTAAACAAATTTTCCTAATCTTTCTGTTCAAGCGCCATCTAC” is lower in binding signal: 0.965 RPM ratio (pull-down/input) for the first, 0.885 RPM ratio (pull-down/input) for the second.

Compared with “GATGATTGTTCTCCCAGCTGATGAATTCACGCGTTCGAGTAAACAAATTTTCCTAATCTTTCTGTTCAAGCGCCATCTAC”, “GATGATTGTTCTCCCAGCTGATGAATTCATTAGATCGAGTAAACAAATTTTCCTAATCTTTCTGTTCAAGCGCCATCTAC” is lower in binding signal: 1.02 RPM ratio (pull-down/input) for the first, 0.904 RPM ratio (pull-down/input) for the second.

First: GATGATTGTTCTCCCAGCTGATGAATTAGGGAATTCGAGTAAACAAATTTTCCTAATCTTTCTGTTCAAGCGCCATCTAC
Second: GATGATTGTTCTCCCAGCTGATGAATTGGATCGGTCGAGTAAACAAATTTTCCTAATCTTTCTGTTCAAGCGCCATCTAC
The binding signal of the first is higher: 0.939 RPM ratio (pull-down/input) for the first, 0.781 RPM ratio (pull-down/input) for the second.

Going from “GATGATTGTTCTCCCAGCTGATGAATTCGCTTCTTCGAGTAAACAAATTTTCCTAATCTTTCTGTTCAAGCGCCATCTAC” to “GATGATTGTTCTCCCAGCTGATGAATTTGAACCGTCGAGTAAACAAATTTTCCTAATCTTTCTGTTCAAGCGCCATCTAC”, the binding signal falls from 0.934 RPM ratio (pull-down/input) to 0.813 RPM ratio (pull-down/input).

First: GATGATTGTTCTCCCAGCTGATGAATTATCTTGGTCGAGTAAACAAATTTTCCTAATCTTTCTGTTCAAGCGCCATCTAC
Second: GATGATTGTTCTCCCAGCTGATGAATTCCATATCTCGAGTAAACAAATTTTCCTAATCTTTCTGTTCAAGCGCCATCTAC
The binding signal of the first is higher: 0.937 RPM ratio (pull-down/input) for the first, 0.894 RPM ratio (pull-down/input) for the second.

Compared with “GATGATTGTTCTCCCAGCTGATGAATTTATTCGTTCGAGTAAACAAATTTTCCTAATCTTTCTGTTCAAGCGCCATCTAC”, “GATGATTGTTCTCCCAGCTGATGAATTCAGTCTTTCGAGTAAACAAATTTTCCTAATCTTTCTGTTCAAGCGCCATCTAC” is lower in binding signal: 1.13 RPM ratio (pull-down/input) for the first, 0.95 RPM ratio (pull-down/input) for the second.

Going from “GATGATTGTTCTCCCAGCTGATGAATTCGTTAAATCGAGTAAACAAATTTTCCTAATCTTTCTGTTCAAGCGCCATCTAC” to “GATGATTGTTCTCCCAGCTGATGAATTGAGCTGCTCGAGTAAACAAATTTTCCTAATCTTTCTGTTCAAGCGCCATCTAC”, the binding signal falls from 0.968 RPM ratio (pull-down/input) to 0.787 RPM ratio (pull-down/input).

First: GATGATTGTTCTCCCAGCTGATGAATTTTCAAGCTCGAGTAAACAAATTTTCCTAATCTTTCTGTTCAAGCGCCATCTAC
Second: GATGATTGTTCTCCCAGCTGATGAATTCATGCCGTCGAGTAAACAAATTTTCCTAATCTTTCTGTTCAAGCGCCATCTAC
The binding signal of the first is lower: 0.826 RPM ratio (pull-down/input) for the first, 0.877 RPM ratio (pull-down/input) for the second.

Compared with “GATGATTGTTCTCCCAGCTGATGAATTCCTGCCCTCGAGTAAACAAATTTTCCTAATCTTTCTGTTCAAGCGCCATCTAC”, “GATGATTGTTCTCCCAGCTGATGAATTGGCTGTATCGAGTAAACAAATTTTCCTAATCTTTCTGTTCAAGCGCCATCTAC” is higher in binding signal: 0.786 RPM ratio (pull-down/input) for the first, 1.06 RPM ratio (pull-down/input) for the second.

First: GATGATTGTTCTCCCAGCTGATGAATTGTGTATTTCGAGTAAACAAATTTTCCTAATCTTTCTGTTCAAGCGCCATCTAC
Second: GATGATTGTTCTCCCAGCTGATGAATTCGGGGCGTCGAGTAAACAAATTTTCCTAATCTTTCTGTTCAAGCGCCATCTAC
The binding signal of the first is higher: 1.75 RPM ratio (pull-down/input) for the first, 0.767 RPM ratio (pull-down/input) for the second.

Compared with “GATGATTGTTCTCCCAGCTGATGAATTCATGGACTCGAGTAAACAAATTTTCCTAATCTTTCTGTTCAAGCGCCATCTAC”, “GATGATTGTTCTCCCAGCTGATGAATTAGTGTGGTCGAGTAAACAAATTTTCCTAATCTTTCTGTTCAAGCGCCATCTAC” is higher in binding signal: 0.886 RPM ratio (pull-down/input) for the first, 1.01 RPM ratio (pull-down/input) for the second.

For “GATGATTGTTCTCCCAGCTGATGAATTCTAACCATCGAGTAAACAAATTTTCCTAATCTTTCTGTTCAAGCGCCATCTAC”, the binding signal was 0.91 RPM ratio (pull-down/input).
